The other results are listed elsewhere or left out.
Legend:
Assay in all cases: glycan array binding signal (z-score within array); higher = stronger binding
Details in all cases: glycan notation: IUPAC condensed, linker removed
[1] = target: Neu5Ac(a2-6)Gal(b1-4)GlcNAc(b1-2)Man
Summary of the method: (§1)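 Negative Z-scores can be read as non-binding. The Z-score is calculated within each array and then averaged across arrays of one protein sequence at different concentrations or buffers and across linkers. Arrays, 3228 in all, were curated from the Consortium for Functional Glycomics database and kept only where the protein sequence was available.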

[2] = target: Neu5Ac(a2-6)Gal(b1-4)GlcNAc(b1-2)Man(a1-3)Man(b1-4)GlcNAc(b1-4)GlcNAc
Summary of the method: as §1

[3] = target: Neu5Ac(a2-6)Gal(b1-4)GlcNAc(b1-2)Man(a1-3)[Gal(b1-4)GlcNAc(b1-2)Man(a1-6)]Man(b1-4)GlcNAc(b1-4)GlcNAc
Summary of the method: as §1

[4] = target: Neu5Ac(a2-6)Gal(b1-4)GlcNAc(b1-2)Man(a1-3)[GlcNAc(b1-2)Man(a1-6)]Man(b1-4)GlcNAc(b1-4)GlcNAc
Summary of the method: as §1

[5] = target: Neu5Ac(a2-6)Gal(b1-4)GlcNAc(b1-2)Man(a1-3)[GlcNAc(b1-4)][Neu5Ac(a2-6)Gal(b1-4)GlcNAc(b1-2)Man(a1-6)]Man(b1-4)GlcNAc(b1-4)GlcNAc
Summary of the method: as §1

[6] = target: Neu5Ac(a2-6)Gal(b1-4)GlcNAc(b1-2)Man(a1-3)[Man(a1-6)]Man(b1-4)GlcNAc(b1-4)GlcNAc
Summary of the method: as §1

[7] = target: Neu5Ac(a2-6)Gal(b1-4)GlcNAc(b1-2)Man(a1-3)[Neu5Ac(a2-3)Gal(b1-4)GlcNAc(b1-2)Man(a1-6)]Man(b1-4)GlcNAc(b1-4)GlcNAc
Summary of the method: as §1

[8] = target: Neu5Ac(a2-6)Gal(b1-4)GlcNAc(b1-2)Man(a1-3)[Neu5Ac(a2-6)Gal(b1-4)GlcNAc(b1-2)Man(a1-6)]Man(b1-4)GlcNAc(b1-4)GlcNAc
Summary of the method: as §1

[9] = target: Neu5Ac(a2-6)Gal(b1-4)GlcNAc(b1-2)Man(a1-3)[Neu5Ac(a2-6)Gal(b1-4)GlcNAc(b1-2)Man(a1-6)]Man(b1-4)GlcNAc(b1-4)[Fuc(a1-6)]GlcNAc
Summary of the method: as §1

[10] = target: Neu5Ac(a2-6)Gal(b1-4)GlcNAc(b1-2)Man(a1-6)Man(b1-4)GlcNAc(b1-4)GlcNAc
Summary of the method: as §1

[11] = target: Neu5Ac(a2-6)Gal(b1-4)GlcNAc(b1-2)Man(a1-6)[Gal(b1-4)GlcNAc(b1-2)Man(a1-3)]Man(b1-4)GlcNAc(b1-4)GlcNAc
Summary of the method: as §1

[12] = target: Neu5Ac(a2-6)Gal(b1-4)GlcNAc(b1-2)Man(a1-6)[GlcNAc(b1-2)Man(a1-3)]Man(b1-4)GlcNAc(b1-4)GlcNAc
Summary of the method: as §1

[13] = target: Neu5Ac(a2-6)Gal(b1-4)GlcNAc(b1-2)Man(a1-6)[Man(a1-3)]Man(b1-4)GlcNAc(b1-4)GlcNAc
Summary of the method: as §1

[14] = target: Neu5Ac(a2-6)Gal(b1-4)GlcNAc(b1-2)[Neu5Ac(a2-6)Gal(b1-4)GlcNAc(b1-4)]Man(a1-3)[GlcNAc(b1-4)][Neu5Ac(a2-6)Gal(b1-4)GlcNAc(b1-2)[Neu5Ac(a2-6)Gal(b1-4)GlcNAc(b1-6)]Man(a1-6)]Man(b1-4)GlcNAc(b1-4)GlcNAc
Summary of the method: as §1

[15] = target: Neu5Ac(a2-6)Gal(b1-4)GlcNAc(b1-2)[Neu5Ac(a2-6)Gal(b1-4)GlcNAc(b1-4)]Man(a1-3)[GlcNAc(b1-4)][Neu5Ac(a2-6)Gal(b1-4)GlcNAc(b1-4)Man(a1-6)]Man(b1-4)GlcNAc(b1-4)GlcNAc
Summary of the method: as §1

[16] = target: Neu5Ac(a2-6)Gal(b1-4)GlcNAc(b1-2)[Neu5Ac(a2-6)Gal(b1-4)GlcNAc(b1-6)]Man(a1-6)[Neu5Ac(a2-6)Gal(b1-4)GlcNAc(b1-2)Man(a1-3)][GlcNAc(b1-4)]Man(b1-4)GlcNAc(b1-4)GlcNAc
Summary of the method: as §1

[17] = target: Neu5Ac(a2-6)Gal(b1-4)GlcNAc(b1-3)Gal(b1-3)GlcNAc
Summary of the method: as §1

[18] = target: Neu5Ac(a2-6)Gal(b1-4)GlcNAc(b1-3)Gal(b1-4)GlcNAc
Summary of the method: as §1

[19] = target: Neu5Ac(a2-6)Gal(b1-4)GlcNAc(b1-3)Gal(b1-4)GlcNAc(b1-2)Man(a1-3)[Neu5Ac(a2-6)Gal(b1-4)GlcNAc(b1-3)Gal(b1-4)GlcNAc(b1-2)Man(a1-6)]GalNAc
Summary of the method: as §1

[20] = target: Neu5Ac(a2-6)Gal(b1-4)GlcNAc(b1-3)Gal(b1-4)GlcNAc(b1-3)Gal(b1-4)GlcNAc
Summary of the method: as §1

[21] = target: Neu5Ac(a2-6)Gal(b1-4)GlcNAc(b1-3)Gal(b1-4)GlcNAc(b1-3)Gal(b1-4)GlcNAc(b1-2)Man(a1-3)[Neu5Ac(a2-6)Gal(b1-4)GlcNAc(b1-3)Gal(b1-4)GlcNAc(b1-3)Gal(b1-4)GlcNAc(b1-2)Man(a1-6)]GalNAc
Summary of the method: as §1

[22] = target: Neu5Ac(a2-6)Gal(b1-4)GlcNAc(b1-3)Gal(b1-4)GlcNAc(b1-3)GalNAc
Summary of the method: as §1

[23] = target: Neu5Ac(a2-6)Gal(b1-4)GlcNAc(b1-3)Gal(b1-4)GlcNAc(b1-3)[Neu5Ac(a2-6)Gal(b1-4)GlcNAc(b1-3)Gal(b1-4)GlcNAc(b1-6)]GalNAc
Summary of the method: as §1

[24] = target: Neu5Ac(a2-6)Gal(b1-4)GlcNAc(b1-3)Gal(b1-4)GlcNAc(b1-6)[Gal(b1-3)]GalNAc
Summary of the method: as §1

[25] = target: Neu5Ac(a2-6)Gal(b1-4)GlcNAc(b1-3)Gal(b1-4)[Fuc(a1-3)]GlcNAc(b1-3)Gal(b1-4)[Fuc(a1-3)]GlcNAc
Summary of the method: as §1

[26] = target: Neu5Ac(a2-6)Gal(b1-4)GlcNAc(b1-3)GalNAc
Summary of the method: as §1

[27] = target: Neu5Ac(a2-6)Gal(b1-4)GlcNAc(b1-3)[Neu5Ac(a2-6)Gal(b1-4)GlcNAc(b1-6)]GalNAc
Summary of the method: as §1

[28] = target: Neu5Ac(a2-6)Gal(b1-4)GlcNAc(b1-6)GalNAc
Summary of the method: as §1

[29] = target: Neu5Ac(a2-6)Gal(b1-4)GlcNAc(b1-6)[Gal(b1-3)GlcNAc(b1-3)]Gal(b1-4)Glc
Summary of the method: as §1

[30] = target: Neu5Ac(a2-6)Gal(b1-4)GlcNAc(b1-6)[Gal(b1-3)]GalNAc
Summary of the method: as §1

[31] = target: Neu5Ac(a2-6)Gal(b1-4)GlcNAc6S
Summary of the method: as §1

Neu5Ac(a2-6)GalNAc = target: Neu5Ac(a2-6)GalNAc
Summary of the method: as §1

[32] = target: Neu5Ac(a2-6)GalNAc(b1-4)GlcNAc
Summary of the method: as §1

[33] = target: Neu5Ac(a2-6)GalNAc(b1-4)GlcNAc6S
Summary of the method: as §1

B1: MAA (Maackia amurensis), P0DKL3 (protein)
chain: MATSNSKPTQVLLATFLTFFFLLLNNVNSSDELSFTINNFVPNEADLLFQGEASVSSTGVLQLTRVENGQPQKYSVGRALYAAPVRIWDNTTGSVASFSTSFTFVVKAPNPDITSDGLAFYLAPPDSQIPSGSVSKYLGLFNNSNSDSSNQIVAVELDTYFAHSYDPWDPNYRHIGIDVNGIESIKTVQWDWINGGVAFATITYLAPNKTLIASLVYPSNQTTFSVAASVDLKEILPEWVRVGFSAATGYPTEVETHDVLSWSFTSTLEANCDAATENNVHIARYTA
glycan array binding signal (z-score) [1]: -0.273
glycan array binding signal (z-score) [2]: -0.196
glycan array binding signal (z-score) [3]: -0.191
glycan array binding signal (z-score) [4]: -0.16
glycan array binding signal (z-score) [5]: -0.172
glycan array binding signal (z-score) [6]: -0.162
glycan array binding signal (z-score) [7]: 0.622
glycan array binding signal (z-score) [8]: -0.206
glycan array binding signal (z-score) [9]: -0.114
glycan array binding signal (z-score) [10]: -0.21
glycan array binding signal (z-score) [11]: -0.197
glycan array binding signal (z-score) [12]: -0.221
glycan array binding signal (z-score) [13]: -0.124
glycan array binding signal (z-score) [14]: -0.238
glycan array binding signal (z-score) [15]: -0.201
glycan array binding signal (z-score) [16]: -0.247
glycan array binding signal (z-score) [17]: -0.19
glycan array binding signal (z-score) [18]: -0.169
glycan array binding signal (z-score) [19]: 0.044
glycan array binding signal (z-score) [20]: -0.289
glycan array binding signal (z-score) [21]: 0.284
glycan array binding signal (z-score) [22]: -0.224
glycan array binding signal (z-score) [23]: 0.454
glycan array binding signal (z-score) [24]: -0.111
glycan array binding signal (z-score) [25]: -0.161
glycan array binding signal (z-score) [26]: -0.241
glycan array binding signal (z-score) [27]: -0.245
glycan array binding signal (z-score) [28]: -0.114
glycan array binding signal (z-score) [29]: -0.303
glycan array binding signal (z-score) [30]: -0.196
glycan array binding signal (z-score) [31]: -0.254
glycan array binding signal (z-score) (Neu5Ac(a2-6)GalNAc): -0.257
glycan array binding signal (z-score) [32]: -0.057
glycan array binding signal (z-score) [33]: -0.269

— the supplement of paper PMC8728848
